Experimental data taken from PubChem BioAssay AID1159614 (National Center for Advancing Translational Sciences (NCATS), 2016).
The campaign covered roughly 45,000 compounds. About 65 (0.1%) were called active. Calls follow the shape of the dose curve; as a rule, active = well fitted activation curve with a large enough effect; inconclusive = small, poorly fitted or top-dose-only effect; inactive = no such curve, though single readings can be large or run the other way. This is one part of the list.

What follows are compounds tested against Galactocerebrosidase (Homo sapiens) (UniProt P54803) (assay: A Novel Cell-Based Assay to Identify Small Molecules for B -Galactocerebrosidase). Conditions: 145M-Twi-hGALC-G270D cells (Twitcher mouse brain line with human GALC G270D), HMU-beta-Gal fluorescence, 48 h; series mostly up to 57.5 µM; activation: at the top concentration.
Summary of the method: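 Fluorogenic HMU-b-Gal hydrolysis (0.1 mM final, pH 5.2 citrate-phosphate with 1 mg/mL sodium taurocholate; carbonate stop buffer) measures mutant GALC activity after compound treatment of live 145M-Twi Twitcher brain cells stably carrying human GALC-G270D, with wild-type GALC line alongside; activation sought.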
Also: 0% is about no effect; nearly all actives have a fitted effect of over 65% in size.

UniProt P54803, sequence (P54803 whole entry, looked up): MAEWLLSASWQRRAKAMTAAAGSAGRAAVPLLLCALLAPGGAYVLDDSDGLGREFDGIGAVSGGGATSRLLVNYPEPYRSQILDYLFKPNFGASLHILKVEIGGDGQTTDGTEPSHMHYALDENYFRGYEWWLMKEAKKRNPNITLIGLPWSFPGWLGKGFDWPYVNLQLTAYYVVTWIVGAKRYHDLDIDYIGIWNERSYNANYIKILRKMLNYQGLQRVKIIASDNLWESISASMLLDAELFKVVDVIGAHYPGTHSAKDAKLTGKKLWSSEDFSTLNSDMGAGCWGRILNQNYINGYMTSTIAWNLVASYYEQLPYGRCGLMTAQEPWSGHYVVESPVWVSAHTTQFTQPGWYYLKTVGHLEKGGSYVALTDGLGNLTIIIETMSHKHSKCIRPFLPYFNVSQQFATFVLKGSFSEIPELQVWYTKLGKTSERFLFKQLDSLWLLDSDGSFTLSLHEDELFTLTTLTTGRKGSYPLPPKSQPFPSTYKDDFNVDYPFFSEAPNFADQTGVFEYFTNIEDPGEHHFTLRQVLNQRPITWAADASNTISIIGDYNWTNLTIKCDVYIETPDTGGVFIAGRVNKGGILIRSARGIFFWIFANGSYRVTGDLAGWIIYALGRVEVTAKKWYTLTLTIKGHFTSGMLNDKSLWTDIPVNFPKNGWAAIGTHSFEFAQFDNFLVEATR

activation, inactive:
CC(C)Oc1ccc(CNC(=O)C2CCN(Cc3cc4ccccc4n3Cc3ccccc3)CC2)cc1 -0.354%, CC1CCc2onc(C(=O)N3CCN(c4cccc(Cl)c4)CC3)c2C1 (stereo not drawn) -8.35%, Cc1cc(C)c(S(=O)(=O)NCC(c2ccco2)S(=O)(=O)c2cccs2)c(C)c1 (stereo not drawn) -17.9%, Cc1cc(Br)cc2c1N(Cc1ccccc1OC(C)C)C(=O)C2=O -38.9%, O=C(/C=C/c1ccccc1)Nc1nc2n(n1)C(c1ccc(F)cc1)C=C(c1ccccc1)N2 (stereo not drawn) -10.6%, CC(C)Oc1ccc(CNC(=O)c2ccc(NC(=O)N3CC(C)Sc4ccccc43)cc2)cc1 (stereo not drawn) -4.38%, CC(=O)CC/C=C(\C)CC/C=C(\C)CC/C=C(\C)CCC=C(C)C -5.44%, CCOCCc1nn2c(=O)cc(COC(=O)c3ccc(NC(=O)C(C)(C)C)cc3)nc2s1 -5.14%, COc1ccc(NC(=O)c2nc(-c3ccc(C)cc3)n3c2CCCCC3)c(OC)c1 -6.13%, CCc1cccc(C)c1NC(=O)c1cnn(-c2ccc(OC)cc2)c1C1CCN(C(=O)OC(C)(C)C)CC1 -13.2%, CCOC(=O)c1ccccc1NC(=O)c1cnc(N2CCOCC2)c2ccccc12 -7.45%, Cc1ccc(SCC(=O)Nc2ccc3oc(-c4ccccc4F)nc3c2)cc1 0.005%, Cc1cc2oc(C(=O)N(Cc3ccco3)Cc3ccccc3Cl)c(C)c2cc1C 25.8%, CN(Cc1ccco1)S(=O)(=O)c1nnc(NC(=O)c2ccccc2Cl)s1 -4.82%, CCC(=O)N1CCc2cc(S(=O)(=O)NC(C(=O)NCCc3cccc(C)c3)C(C)C)ccc21 (stereo not drawn) -1.07%, O=C(NCc1cccs1)c1ccc(CSc2nc3ccncc3n2Cc2ccccc2F)cc1 -17.5%, Cc1nn(C)c(C)c1CCNC(=O)Nc1ccccc1C(F)(F)F -16.7%, COc1ccc(N2CC(NC(=O)/C=C\c3ccccc3)CC2=O)cc1OC (stereo not drawn) -6.65%, CCN(CC)c1nn2c(=O)c(C(=O)NCc3ccc(N(C)C)cc3)cnc2s1 -12.1%, COc1ccccc1CNC(=O)C1CCN(S(=O)(=O)c2cn(C)cn2)CC1 -9.99%, Cc1ccc(C2c3[nH]c4ccccc4c3CCN2C(=O)CSCc2ccc(F)cc2)cc1 (stereo not drawn) -4.81%, O=C(NCCc1csc(-c2ccc(F)cc2)n1)c1cccc(F)c1 -14.3%, CCc1ccccc1N(C)C(=O)c1sc2nc3n(c(=O)c2c1C)CCCCC3 -11.6%, COc1ccc(C(=O)CCC(=O)Nc2ccc(C)c(Cl)c2)cc1 -11.7%, CC1CCCN(CCCNC(=O)c2cc3c(Cl)nc4ccccc4c3s2)C1 (stereo not drawn) -15.8%, COc1cc(Cl)c(C)cc1Nc1nc2ccccc2n2cnnc12 5.64%, CCOc1ccc(Br)cc1S(=O)(=O)Nc1cccc(-c2ccc(OC)nn2)c1 -13.3%, Cc1ccc(C)c(N2CCN(C(=O)CN3C(=O)COc4ccc(S(=O)(=O)N5CCC(C)CC5)cc43)CC2)c1 -8.49%, COc1ccc(NC(=O)c2c(C)oc3ccc(O)c(CN4CCCCCC4)c23)cc1 -5.08%, Cc1[nH]cnc1-c1ccc(Cl)cc1 -11.5%, CCn1nnc2cc(C(=O)Nc3ccc(OC)cc3)ccc21 -18.8%, COc1ccc(-n2c(=O)c3c4c(sc3n(Cc3ccc(C(C)(C)C)cc3)c2=O)CCC4)c(OC)c1 -11.3%, Cc1ccc(Cl)cc1N1CCN(C(=O)c2ccc3c(c2)N(Cc2ccccc2)CCS3)CC1 -11.6%, O=c1[nH]c(=O)n([C@H]2C[C@H](O)[C@@H](CO)O2)cc1Br -15.8%, Cc1ccc(N2CCN(S(=O)(=O)c3ccc(-n4cnnn4)cc3)CC2)c(C)c1 -8.55%, O=C(NCCc1ccccc1)c1nn(-c2ccccc2Cl)nc1CO -24.6%, Fc1ccc(Nc2c(-c3ccccn3)nc3ccc(Cl)cn23)cc1 -1.51%, O=C(Nc1cc(Cl)cc(Cl)c1)c1cc(S(=O)(=O)N2CCC3(CC2)OCCO3)ccc1F -11.2%, COc1ccc(OC)c(NC(=O)CCNC(=O)Cn2cnc3ccccc3c2=O)c1 -19.3%, COc1cccc(NC(=O)Cc2csc(COc3cccc(C)c3)n2)c1 -5.82%, COc1cc(NC(C)CCCN)c2ncccc2c1 (stereo not drawn) -7.78%, COc1ccc(CCNC(=O)c2cc(=O)[nH]c3ccc(S(=O)(=O)N4CCCCC4C)cc23)cc1OC (stereo not drawn) -6%, Cc1cn2c(=O)cc(COC(=O)c3ccc(NC(=O)C(C)Oc4ccccc4)cc3)nc2s1 (stereo not drawn) -22.8%, CCOCCCNC(=O)c1c(NC(=O)c2nc(SC)ncc2Cl)sc2c1CCCC2 -15.7%, COCCn1c(C)cc(O)c(C(c2ccc(OC)cc2)N2CCN(c3ccccc3)CC2)c1=O (stereo not drawn) -20.5%, CCCCC1(COC(=O)CCC(=O)O)C(=O)N(c2ccccc2)N(c2ccccc2)C1=O -10.6%, Cc1ccc(C)c(-n2nnc(C(=O)Nc3ccc(Br)cc3)c2C)c1 -8.12%, NS(=O)(=O)c1ccc(NC(=O)c2csnn2)cc1 -16.6%, CC(C)c1ccc(NC(=O)c2cnc3sc(N4CCOCC4)nn3c2=O)cc1 6.29%, COc1ccc(NC(=O)CN(C)S(=O)(=O)c2ccc3c(c2)c(=O)n(C)c(=O)n3C)cc1 -6.56%, COc1ccc(OC)c(NC(=O)Cn2cnc3onc(-c4ccc(Cl)cc4)c3c2=O)c1 -1.57%, COc1cccc(-c2nc(CS(=O)(=O)CC(=O)NCCc3ccc(Cl)cc3)c(C)o2)c1 -17.7%, Cc1ccc(-n2ncc3c(Nc4cccc(C(F)(F)F)c4)ncnc32)cc1C 3.54%, Cc1cc2c(cc1S(=O)(=O)NCc1ccccc1Cl)OCC(=O)N2 -9.84%, Cc1cc(C)cc(NC(=O)COCc2cc(-c3ccc4c(c3)OCO4)on2)c1 -15.3%, CCOCCn1c(=O)c2c(nc3n2CCN3c2ccc(C)c(C)c2)n(C)c1=O -13%, COc1cccc(N2CCN(C(=O)C3CCN(S(=O)(=O)c4cn(C)cn4)CC3)CC2)c1 -12.7%, CC1CCCCN1C(=O)CSc1c2c(nc3cc(Cl)ccc13)CCCC2 (stereo not drawn) -16.1%, CCc1ccc(-n2nc(CO)c(C(=O)NCc3cccs3)n2)cc1 -12.2%, COc1ccc(-c2nc3ccc(Cl)cn3c2Nc2ccc(C)cc2)cc1 -6.9%, CCCCNC(=O)c1cn(C)c2ccc(S(=O)(=O)N3CCCC3)cc2c1=O -14.5%, Cc1ccc(C(=O)NCC(c2ccco2)S(=O)(=O)c2ccc(Cl)cc2)cc1C (stereo not drawn) -20.7%, COc1ccc(OCC2c3cc(OC)c(OC)cc3CCN2C(=O)c2c(F)cccc2F)cc1 (stereo not drawn) -21.2%, Cc1ccc(NC(=O)CCn2c(=O)c3cccn3c3ccccc32)cc1Cl -12.4%, O=C(CSc1nc(=O)n(Cc2ccco2)c2c1CCC2)NCc1ccc(Cl)cc1 -16.4%, COc1cc(OC)c(NC(=O)Cn2cnc3sc(C)c(S(=O)(=O)N4CCC(C)CC4)c3c2=O)cc1Cl -8.25%, COc1ccc(N2CC(NC(=O)C(=O)c3c(C)[nH]c4ccccc34)CC2=O)cc1 (stereo not drawn) -16.2%, COc1ccccc1CNC(=O)CSc1nc(=O)[nH]c2c1CCCC2 -3.31%, CCN(Cc1ccccc1)C(=O)Cn1c(=O)n(-c2ccc(Cl)c(Cl)c2)c(=O)c2c(C)c(C(=O)N(C)C)sc21 -9.61%, Cc1cc(C)c2nc(N(Cc3cccnc3)C(=O)Cc3ccccc3)sc2c1 -8.58%, Cc1cc(C)n(-c2nc3ccccc3nc2Nc2cc(Cl)ccc2C)n1 -13.7%, Cc1cc(NC(=O)Nc2nnc(N3CCCCC3)s2)ccc1Br -14.3%, CC(C)(CC(=O)OCC(=O)Nc1ccccc1F)CC1=NS(=O)(=O)c2ccccc2N1 -7.83%, CCOC(=O)Cn1c(=O)c2c(nc(N3CCOCC3)n2Cc2ccccc2)n(C)c1=O -13.1%, O=C(COc1ccc([N+](=O)[O-])cc1)N1CCC(c2nc3ccccc3s2)CC1 -22.7%, CC(=O)c1cccc(-n2c(=O)c3c4c(sc3n(CC(=O)Nc3ccccc3F)c2=O)CN(C(C)=O)CC4)c1 -4.45%, COc1cc(NC(=O)c2ccc3c(Cl)c4c(nc3c2)CCC4)cc(OC)c1OC -20.8%, COc1cc(-c2ccc(=O)[nH]n2)ccc1OC(F)F 6.54%, CCc1ccc(CNC(=O)C2CCN(c3nnc(C)c4c(C)n(-c5ccc(C)cc5)nc34)CC2)cc1 -10.8%, CCOc1ccc(N(C(C)C(=O)NCCSc2ccc(Cl)cc2)S(C)(=O)=O)cc1 (stereo not drawn) -2.21%, Cc1nc(N2CCOCC2)c2c(C(=O)N(C)Cc3ccccc3)c(C)oc2n1 -9.44%, CCOc1cccc2sc(N3CCN(C(=O)C(C)(C)C)CC3)nc12 -17.9%, O=C(Nc1nnc(S(=O)(=O)N2CCCCCC2)s1)c1ccccc1F -15.5%, O=C(Cn1nc(-c2ccccc2)c2cnc3ccc(F)cc3c21)NC1CCCC1 0.182%, CCOC(=O)C1CCN(c2cc(C)nc3c(-c4ccccc4OC)c(C)nn23)CC1 -3.67%, Cc1ccc(-c2nnc(SCC(=O)N3CCCc4ccccc43)o2)cc1 -7.69%, Cc1cc(NC(=O)CSc2nc3c([nH]c4ccccc43)c(=O)n2-c2ccccc2F)no1 -10.2%, CCCCNc1nc(Oc2ccc(=O)n(-c3ccccc3)n2)nc(N(CC)CC)n1 5.21%, Cc1ccc(NC(=O)c2nnn(Cc3cccc(C(F)(F)F)c3)c2N)c(C)c1 -21.5%, COc1cccc(Cn2ccn(-c3ccc(F)cc3)c(=O)c2=O)c1 -12.1%, O=C(Nc1ccc(Cl)cc1)N1CCC(CN2CCCCCC2)CC1 -3.83%, Cc1ccc(C(=O)c2oc3ccccc3c2NC(=O)c2cc(=O)c3cc(C)ccc3o2)cc1 -14%, CCNC(=O)C1CCCN(c2ncnc3onc(C)c23)C1 (stereo not drawn) -6.6%, COC(=O)c1ccc(-n2nnc(-c3nc(-c4ccccc4Cl)no3)c2C)cc1 -12.1%, COc1ccc(NC(=O)Cn2cc(C(=O)c3ccncc3)c(=O)c3cc(C)ccc32)cc1Cl -24.8%, Cc1cccc(Cn2c(SCc3ccc(C(=O)NCc4ccccc4)cc3)nc3cccnc32)c1 -13.1%, Cc1ccc(OCC(=O)Nc2ccc3c(c2)sc(=O)n3C)cc1 -12.6%, COc1ccc(-n2c(=O)[nH]c3cc(C(=O)NCCc4ccc(Cl)cc4)ccc3c2=O)cc1OC -15.1%
